The subject of the series is ATP. Briefly: switch fluorescence ratio, 500 uM ATP over buffer (Cy3 cluster intensity, sum of 5 cycles each) (fold (ratio)); higher = stronger signal-on switching upon ATP binding; sequences stand for … in TCGTCGGCAGCGTCAGATGTGTATAAGAGACAGTTTTTTTTTTTTTTTTTTTTTTTTT…TC. The note with it: aptamer strand: ATP DNA aptamer (quencher-CACCTGGGGGAGTATTGCGGAGGAAGG + anchor), 100 nM annealed; ATP concentration: 500 uM; one replicate. Summed up: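 Per cluster, summed Cy3 intensity from the target cycles was divided by that from the buffer cycles to give the fluorescence ratio, then averaged per switch-domain sequence. Clusters outside 100-1000 RFU were excluded. The Cy3-labelled switching-strand clusters, on a modified Illumina MiSeq flow-cell, were annealed to 100 nM quencher-labelled ATP aptamer and imaged in selection buffer, then after 15 min with 500 uM ATP at 22 °C, for five cycles with NaOH stripping and re-annealing between them.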

The record followed here is the supplement of paper PMC10126150.

Values marked as one replicate rest on one cluster of the flow cell; about a third of the high ones do not repeat.
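Note: ATP exposure 15 min at 22 °C before imaging.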

As to TAGTTCTGTA, the switch fluorescence ratio worked out at 1.02.

With TATGAGGTT, the switch fluorescence ratio came to 1.03.

For GCAGGGAGAA, the switch fluorescence ratio was found to be 0.991. For TTGTAGAACT the value was 1.02; for CAAGACTGAG, 0.999; for ATAGGTCCT, 1.02.

As for ATTGCTCAGC, the switch fluorescence ratio amounted to 1.07. With TGCGGAGAGG, the switch fluorescence ratio is 1.03. For TCGATTCGGA the value was 1.03; for ACAAGTTAAC, 1.03; for GAGGCTTGT, 0.972. For CACTAGGACG the value was 1.1. As for TGCTTTTAAA, the switch fluorescence ratio worked out at 0.964.

For ACGCTCCATT, the switch fluorescence ratio was determined as 1.09. The value for TTCAAGCCTC was 1.08; that for AAAAGGTTCA was 0.991. In the case of TTGTAATGCG, the switch fluorescence ratio is 0.977.

As for AGCGCGCTCC, the switch fluorescence ratio is 1.01. Regarding CTTTAGGGGG, the switch fluorescence ratio was determined as 1.02.

For the sequence GATCCATTGC, the switch fluorescence ratio came out at 1.06. For CCAGTTAACC the value was 0.996; for TCTTTCCATG, 1.03; for CGGTGAAGAG, 0.996. For GCAAAGCCTT the value was 1.07. The value for GAGTGCGATG was 1.01; that for TTCAACTTGG was 0.955; that for CATAAATCAT was 1.01. Turning to TAGCTGCGCC, the switch fluorescence ratio is 0.979. Turning to TCGATGATGC, the switch fluorescence ratio is 1.16. Turning to CGACCCAGAG, the switch fluorescence ratio worked out at 1.02. In the case of GAAACTACAT, the switch fluorescence ratio was determined as 1.04. Take GATGTTTTAG: the switch fluorescence ratio was found to be 0.969. For CGGAGGAGCG the value was 0.997; for GCTAGAGACC, 0.986. For TGCATCAGGG, the switch fluorescence ratio was 1.02. On to GTGGCAGCCA, for which the switch fluorescence ratio came out at 1. The value for GTAACTTTGG was 0.959; that for CCTCCCGTTA was 5.98; that for TGTTTCGTAA was 1.06.

Turning to ACATTGGGGT, the switch fluorescence ratio came out at 0.972.

For the sequence GATTTTATAC, the switch fluorescence ratio was 1.05. The value for GGTTGTTCGA was 1.01; that for ACTCCGTTTT was 2.07; that for GGGAACTGGT was 1.01. For GCCTAGTGTC the value was 1.14; for GACATCACCA, 1.25; for AAGAGGTCGC, 1.01.

Turning to TGCTAAGGGA, the switch fluorescence ratio is 1.05.

Turning to GACGCGATTA, the switch fluorescence ratio was 5.23. As for AAAGAAGGAG, the switch fluorescence ratio was 0.988. ACATGCCCGT: the switch fluorescence ratio worked out at 1.

Consider CCCCCTCGGA, for which the switch fluorescence ratio was determined as 1.14. For TTAGATGACG the value was 0.916; for TCGTAGCGGA, 1.49. With CTCGCAGTTT, the switch fluorescence ratio came to 1.17. For GGCCCTATAA the value was 0.927; for ACGTCCGGTT, 0.993; for CCGCTTTCGA, 3.47. Consider CATCTGAAGC, for which the switch fluorescence ratio was found to be 1.12. For GATTCATGAG the value was 0.981; for TACTACGTCG, 0.999.

As for CCAGACGCCG, the switch fluorescence ratio was determined as 0.889. For CCCAGAAAC the value was 1.07; for CATTCTTTGT, 0.95. The value for TAGTCGGGGG was 1.02; that for AAGGCAGTAA was 1.01; that for TCAAAACAAC was 1. The value for TCCACTTCTC was 1.09; that for GGAGTTATTG was 0.973. In the case of GTAAAGTGTA, the switch fluorescence ratio was determined as 0.983. The value for GGCATGGCTG was 0.993; that for ACACTCGTTA was 0.98.

In the case of CGCACCGCGT, the switch fluorescence ratio was determined as 0.963. The value for GTAATAGGAC was 1.06. For GGCTGAAGAC the value was 1.02; for GGTCCTGGCA, 1.03; for ATTTGCCTAG, 0.993. The value for CGAGGCCCGC was 1.09.
